# Data published in PubChem BioAssay AID686978 (National Center for Advancing Translational Sciences (NCATS), 2013).
# Where “and” joins values, the source holds several entries; their conditions need not be identical. Equal entries are not always repeated. Among all 420,000 compounds or so, about 64,000 (15%) were called active. This list was built around the results that the source calls inconclusive (neither active nor inactive); the mix of calls is not that of the screen. Calls come from the whole dose curve; as a rule, active = well fitted inhibition curve with a large enough effect; inconclusive = small, poorly fitted or top-dose-only effect; inactive = flat fitted curve, though single readings scatter. A potency beside an inconclusive call is a rough fit, not a confirmed value.
# Experiment: qHTS for Inhibitors of human tyrosyl-DNA phosphodiesterase 1 (TDP1): qHTS in cells in absence of CPT; note: nearly all actives have a fitted effect of over 55% in size
# Details: DT40 Tdp1-/- hTDP1 cells, no CPT, ATP luminescence, 48 h; series mostly up to 46.2 µM
# Outline: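 Readout: luminescence from CellTiter-Glo after 30 min in the dark at RT. Cells: DT40 Tdp1-/- with stable hTDP1, 400/well. Exposure: compounds alone, ≥48 hr, 37 °C.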
# Potency is the fitted concentration of half-maximal effect; tags give direction and shape of the fitted curve.
row,SMILES,Potency
1,C=CCn1c(O)c(C(CC)=NCc2ccc3c(c2)OCO3)c(=O)[nH]c1=O,"inconclusive: 29.1 µM [inhibitor, single point]"
2,C=CCC1([C@@H](C)CCC)C(=O)NC(=O)NC1=O,"inactive and inconclusive: 29.4 µM [inhibitor, single point]"
3,Cc1cc(=O)oc2c(C)c(OCC(=O)N3CCN(Cc4ccccc4)CC3)ccc12,"inconclusive: 9.2 µM [inhibitor, partial curve, poor fit]"
4,COc1cc(C[C@@H](C)N)c(OC)cc1I,"inconclusive: 10.3 µM [inhibitor, partial curve]"
5,Cc1ccc(NC(=O)c2cc(S(=O)(=O)N3CCOCC3)c(Cl)cc2Cl)cc1,active: 18.4 µM
6,CCCCn1c(O)c(C=NCCCN(CC)CC)c(=O)[nH]c1=O,inactive
7,CN(C)C(Cc1ccccc1)C(=O)c1ccc(-c2ccccc2)cc1 (configuration not stated),"inconclusive: 29.1 µM [inhibitor, single point]"
8,C[C@H]1CCCC(=O)CCC/C=C/c2cc(O)cc(O)c2C(=O)O1,"inconclusive: 2.06 µM [inhibitor, partial curve]"
9,COc1ccccc1/C=N/N=C(/N)N[N+](=O)[O-],inactive
10,CN(CCc1ccccc1)C(=O)c1ccc(NC(=O)Cc2cccc([N+](=O)[O-])c2)cc1,"inconclusive: 16.4 µM [inhibitor, single point]"
11,CC(C)(N)Cc1ccc(Cl)cc1,inactive
12,CN(C)C1C(=O)C(C(N)=O)=C(O)[C@@]2(O)C(=O)C3=C(O)c4c(O)ccc(Cl)c4[C@](C)(O)C3CC12 (some centres not stated),active: 18.4 µM
13,O=C(CCN1CCN(CCO)CC1)N1c2ccccc2Sc2ccc(C(F)(F)F)cc21,active: 23.1 µM
14,COc1ccc(-n2c(O)c(C(C)=Nc3ccc4c(c3)CCC4)c(=O)[nH]c2=O)cc1,inactive
15,Cc1cc(O)c2c(c1)OC(C)(C)C1=C2CC(C)CC1 (configuration not stated),inactive
16,COc1ccc(C/C(=N\OC(C)=O)c2ccc(OC)cc2)cc1,"inconclusive: 5.8 µM [inhibitor, single point]"
17,CC(C)COC(=O)c1ccccc1C(=O)OCC(C)C,"inconclusive: 23.1 µM [inhibitor, partial curve]"
18,CC[C@H]1OC(=O)C[C@@H](O)[C@H](C)[C@@H](O[C@@H]2O[C@H](C)[C@@H](O[C@H]3C[C@@](C)(O)[C@@H](O)[C@H](C)O3)[C@H](N(C)C)[C@H]2O)[C@@H](CC=O)C[C@@H](C)C(=O)/C=C/C(C)=C/[C@@H]1CO[C@@H]1O[C@H](C)[C@@H](O)[C@@H](OC)[C@H]1OC,"inconclusive: 33.5 µM [inhibitor, single point]"
19,CN1CC[C@]23c4c5ccc(O)c4OC2C(O)C=CC3[C@H]1C5 (some centres not stated),"inconclusive: 4.11 µM [inhibitor, single point]"
20,CCc1ccc(N2C(=O)NC(=O)/C(=C\C=C\c3ccco3)C2=O)cc1,active: 3.26 µM
21,CCOC(=O)c1cn2nc(OP(=S)(OCC)OCC)cc2nc1C,"inconclusive: 25.9 µM [inhibitor, single point]"
22,CCN1CCN(c2ccc([N+](=O)[O-])cc2C=C2C(=O)NC(=O)NC2=O)CC1,inactive
23,Cc1ccc(-n2c(/C=C/c3cccs3)nc3ccccc3c2=O)cc1C,"inconclusive: 18.4 µM [inhibitor, single point]"

row,SMILES,Potency
1,CCCCNCC(O)c1ccc(O)cc1 (configuration not stated),inactive
2,c1cc2c(cc1[C@H]1OC[C@H]3[C@@H]1CO[C@@H]3c1ccc3c(c1)OCO3)OCO2,inactive
3,O=C1C=C2C=C[C@@H]3CC2(O1)[C@H]1CCCCN31,active: 18.4 µM
4,c1ccc2c(N3CCNCC3)cccc2c1,"inconclusive: 20.6 µM [inhibitor, partial curve] and inconclusive: 9.2 µM [inhibitor, partial curve]"
5,N#Cc1ccccc1Cn1cc(C(=O)c2ccccc2F)c2ccccc21,"inconclusive: 20.6 µM [inhibitor, single point]"
6,CCN(CC)CCC(=O)O[C@H]1CC[C@]2(C)C3CC[C@@]4(C)C(CC[C@]4(C)O)C3CC[C@H]2C1 (some centres not stated),"inconclusive: 23.1 µM [inhibitor, single point]"
7,CN(C)CCO,inactive
8,O=C(CSc1ccc(-c2ccco2)nn1)Nc1ccccc1,"inconclusive: 14.6 µM [inhibitor, single point]"
9,CSc1nc(C)c(Br)c(N2CC2)n1,"inconclusive: 18.4 µM [inhibitor, single point]"
10,CCCCCCCCCC[Si](C)(C)CCC(=O)N[C@@H](Cc1ccc(C)cc1)c1ccccc1,"inconclusive: 22.4 µM [inhibitor, single point]"
11,COc1cccc(/C=C/c2nc3ccccc3c(=O)n2-c2ccc(Cl)cc2)c1OC,"inconclusive: 29.1 µM [inhibitor, single point]"
12,O=C(NC(C(Cl)Cl)N1CCOCC1)c1ccccc1 (configuration not stated),inactive
13,COCCCNC(=S)NNC(=O)c1ccc(C(C)(C)C)cc1,"inconclusive: 18.4 µM [inhibitor, single point]"
14,O=C(CCC(=O)N1CCC2(CC1)OCCO2)Nc1nnc(C2CCCCC2)s1,inactive
15,CC1(C)CC(=O)C2=C(C1)NC(=O)C21C(C(=O)OC(C)(C)C)=C(N)Oc2ccc(Br)cc21 (configuration not stated),"inconclusive: 29.1 µM [inhibitor, single point]"
16,Clc1cccc(CNCCc2c[nH]c3ccccc23)c1,"inconclusive: 14.6 µM [inhibitor, partial curve, poor fit]"
17,CCC(=O)Oc1ccc2c(c1)CC[C@@H]1[C@@H]2CC[C@]2(C)[C@@H](OC(=O)CC)CC[C@@H]12,"inconclusive: 29.9 µM [inhibitor, single point]"
18,Cc1cccc(Cn2c(=O)n(Cc3ccc(C(=O)NC4CCN(Cc5ccccc5)CC4)cc3)c(=O)c3ccccc32)c1,active: 3.26 µM
19,Cc1cc(S(=O)(=O)NCC(C)C)ccc1OCC(=O)N1CCN(Cc2ccccc2)CC1,inactive
20,O=C1NC(=O)C(=Cc2cc(Cl)ccc2OCc2ccc(C(=O)O)cc2)C(=O)N1,inactive
21,CSCCC(c1nnnn1Cc1ccccc1)N1CCC2(CC1)C(=O)NCN2c1ccccc1 (configuration not stated),active: 20.6 µM
22,COC(=O)[C@@]1(Sc2ccc(C)cc2)CC(=O)N(P(=O)(OC)OC)[C@@H]1c1ccccc1,"inconclusive: 16.4 µM [inhibitor, partial curve]"
23,CCN(CC)P(=S)(c1c(C)nc2ccccn12)c1c(C)nc2ccccn12,"inconclusive: 18.4 µM [inhibitor, single point]"

row,SMILES,Potency
1,Cc1cc(OCC(=O)N2CCN(CC(=O)N3CCOCC3)CC2)c(C(C)C)cc1Cl,"inconclusive: 13 µM [inhibitor, partial curve]"
2,Cc1ccc(NC(=O)CSc2nc(-c3ccco3)cc(C(F)(F)F)n2)c(C)c1,active: 1.84 µM
3,C=CCN1C(=O)NC(=O)/C(=C/c2ccoc2)C1=O,"inconclusive: 14.6 µM [inhibitor, partial curve]"
4,N#CC(C#N)=Cc1ccc(N2CCCC2)cc1,"inconclusive: 13 µM [inhibitor, partial curve, poor fit]"
5,O=C(C(=O)N1CCOCC1)c1cn(CCCOc2ccccc2)c2ccccc12,"inconclusive: 29.1 µM [inhibitor, single point]"
6,COc1ccc(CN2C(=O)NC(=O)/C(=C\c3cccc(OC)c3OC)C2=O)cc1,inactive
7,CCn1c(P(C)(=O)O)nc2ccccc21,inactive
8,CC1CCC(NC(=O)c2cc3c(=O)n(C)c4ccccc4c3n2C)CC1 (configuration not stated),"inconclusive: 29.1 µM [inhibitor, single point]"
9,CCCC12CN3CC(CCC)(CN(C1)C3c1ccccn1)C2=O (configuration not stated),"inconclusive: 29.1 µM [inhibitor, single point] and inconclusive: 23.1 µM [inhibitor, single point]"
10,Cc1ccccc1OCCCn1cc(C(=O)C(=O)N2CCOCC2)c2ccccc21,"inconclusive: 29.1 µM [inhibitor, single point]"
11,CC(C)n1c(O)c(C2c3cc(Cl)ccc3Oc3[nH]c(=O)n(C(C)C)c(=O)c32)c(=O)[nH]c1=O (configuration not stated),active: 2.91 µM
12,Cn1c(O)c(C=NC2CCN(Cc3ccccc3)CC2)c(=O)[nH]c1=O,inactive
13,CN1Cc2ccccc2[C@@H]2c3cccc4[nH]cc(c34)C[C@H]21,active: 2.66 µM and active: 5.8 µM
14,CCOP(=O)(OCC)C(NC(=O)c1ccc(OC)cc1)C(Cl)(Cl)Cl (configuration not stated),inactive
15,Cc1cccc(CSc2nc3c(cc2C#N)CN(C)CC3)c1,inactive
16,O=C(Cc1ccc(S(=O)(=O)N2CCCC2)s1)N1CCN(c2ccc(F)cc2)CC1,"inconclusive: 20.6 µM [inhibitor, single point]"
17,O=c1[nH]c2ccccc2n1C1CCN(C(c2ccnc3ccccc23)c2nnnn2-c2ccc3c(c2)OCCO3)CC1 (configuration not stated),active: 9.2 µM
18,CCC(=Nc1cccc(C(F)(F)F)c1)c1c(O)n(C)c(=O)n(C)c1=O,"inconclusive: 8.2 µM [inhibitor, partial curve]"
19,CC=C(C)C(=O)O[C@H]1C(C)=C2[C@@H]3OC(=O)[C@@](C)(O)[C@@]3(O)[C@@H](OC(=O)CCC)C[C@](C)(OC(C)=O)[C@@H]2[C@@H]1OC(=O)CCCCCCC,active: 0.116 µM
20,Cc1ccc(C)c(NC(=O)Cn2nc(C)c3nn(-c4ccc(Cl)cc4)c(C)c3c2=O)c1,active: 18.4 µM
21,COc1cc2[nH]c(=O)n(Cc3ccc(C(=O)N4CCN(c5ccc(Cl)cc5)CC4)cc3)c(=O)c2cc1OC,active: 2.91 µM
